Several values for one entry are separate records, joined by “and”; a condition that tells them apart may be missing. Identical values can stand only once. Among all 94,000 compounds or so, about 4,000 (4.3%) were called active. Inconclusive results, whose numbers are uncertain, are shown with a selection of clear calls. The call rests on the fitted dose curve; in most records, active means well fitted inhibition curve with a large enough effect; inconclusive means small, poorly fitted or top-dose-only effect; inactive means no such curve, though single readings can be large or run the other way. Potencies beside an inconclusive call are fits to weak or partial responses and may not hold up.
Assay: Cytotoxic Profiling in NIH 3T3 Cell Line of Diverse Libraries Using Quantitative High-Throughput Screening; further: nearly all actives have a fitted effect of over 55% in size
Conditions: NIH 3T3 viability, CellTiter-Glo ATP luminescence, 48-72 h; series mostly up to 96.7 µM
Description: Cell-based phenotypic screening is a commonly used approach to discover biological pathways, novel drug targets, chemical probes and high-quality hit-to-lead molecules. Many hits identified from high-throughput screening campaign are ruled out through a series of follow-up potency, selectivity/specificity, and cytotoxicity assays. Prioritization of molecules with little or no cytotoxicity for a more in-depth downstream evaluation influence the future direction of projects, so cytotoxicity profiling of the screening libraries at early stage is essential for increasing the likelihood of candidate success. In this study, we analyzed results from a cell-based cytotoxicity screening campaign, comprising nearly 10,000 compounds in NCATS annotated libraries, and over 100,000 compounds in a diversity library, evaluated in four normal cell lines (HEK 293, NIH 3T3, CRL-7250 and HaCat) and a cancer cell line (KB 3-1, a HeLa subline) with overall screening outcomes, hit rates, pan-activity and selectivity. For the annotated library, we also examined the primary targets and mechanistic pathways regularly associated with cell death. To our knowledge, this is the first study to use high-throughput screening to profile large libraries for cytotoxicity assessment in both normal and cancer cell lines. In summary, the results generated here constitutes a valuable resource for the scientific community and provides insight on identifying cytotoxic compounds with particular mechanisms of action, and prioritizing compounds with suitable cytotoxicity profile for further evaluation.
NIH 3T3 cells were seeded into white 1536-well plates using a Multidrop Combi peristaltic dispenser (ThermoFisher, Waltham, MA) at a density of 400 cells/well in 5 uL of medium respectively. A pintool (Kalypsys) was used to transfer 23 nL of compound solution to the 1536-well assay plates. After 48 or 72 hr incubation at 37 degree Celsius, 5% CO2 and 95% humidity, 2.5 uL of CellTiter-Glo (Promega) was dispensed into each well using a dispenser (Aspect Automation, St. Paul, MN) with solenoid valves (Lee Valves, Westbrook CT). Plates were left at room temperature for 10 min before imaging the ATP-coupled luminescence using a ViewLux microplate imager (PerkinElmer, Waltham, MA).
Potency means the concentration at half of the fitted maximal effect; tags describe the fitted curve by direction and shape.

Structure (SMILES) | Potency
O=C(COc1ccc(F)cc1)Nc1cccc(-c2nnc3n2CCCC3)c1 | inactive
COc1cccc2c1OCCCN(c1cc(C3CC(O)C3)nc(N)n1)C2 (stereo not drawn) | active: 12.6 µM
Oc1ccccc1CN[C@H]1[C@H](O)[C@@H](N2CCC(Cc3ccccc3)CC2)[C@@H]2OC[C@H]1O2 | inconclusive: 112 µM [inhibitor, partial curve, poor fit]
CN(Cc1ccccc1)C(=O)C1(c2ccc(NC(=O)C3CC3)cc2)CCCCC1 | inconclusive: 35.5 µM [inhibitor, partial curve, poor fit]
Cc1ccc(C(=O)N2CCC3(C2)C(=O)N(CCc2ccccc2)c2ccccc23)cc1 (stereo not drawn) | active: 39.8 µM and inconclusive: 44.7 µM [inhibitor, partial curve, poor fit]
CC1(COc2ccccc2)COc2ccc(C(=O)NCc3cccs3)cc2N1 (stereo not drawn) | inconclusive: 79.4 µM [inhibitor, partial curve, poor fit]
CCOc1cc(=O)n2c(c1C(=O)Nc1ccc(C(C)C)cc1)CCCC2 | inactive
O=C(c1ccco1)N1CC(Oc2ccc(-c3nc(-c4ccccc4)no3)cc2)C1 | active: 28.2 µM
O=C(Nc1ccc2ncnc(N3CCCCC3)c2c1)c1cccc(F)c1 | inconclusive: 44.7 µM [inhibitor, partial curve, poor fit]
COc1ccc(CN2Cc3[nH]nc(-c4cncnc4)c3CC2=O)cc1 | inconclusive: 100 µM [inhibitor, partial curve, poor fit]
Cc1ccc(CN2CCCC23Cc2ccccc2CNC3=O)cc1C (stereo not drawn) | inconclusive: 79.4 µM [inhibitor, partial curve, poor fit]
Cc1ccc(C(=O)N2CCCC(n3cc(-c4nc(C5CC5)no4)nn3)C2)s1 (stereo not drawn) | inactive
COc1cccc(CC(=O)NCC23CCCC=C2N(CC2CC2)C(=O)CC3)c1 (stereo not drawn) | inconclusive: 35.5 µM [inhibitor, partial curve, poor fit]
CS(=O)(=O)N1CCC(Oc2ccc(C(=O)NCCc3cnccn3)cc2Cl)CC1 | inactive
O=C(C1CCCCC1)N1Cc2[nH]cnc2C[C@H]1c1nc(-c2ccc3ccccc3c2)no1 | active: 79.4 µM
COCCN1CCNc2nc(CNCc3cnccn3)n(Cc3ccccc3)c2C1=O | inconclusive: 112 µM [inhibitor, single point]
CCn1ccc(C(=O)N2CCC(Oc3ccccc3-c3nc(-c4ccccc4)no3)C2)n1 (stereo not drawn) | inconclusive: 50.1 µM [inhibitor, partial curve, poor fit]
O=C(c1c(F)cccc1F)N(CC1CCOC1)C1CC1 (stereo not drawn) | inconclusive: 50.1 µM [inhibitor, single point]
